From PMC4891128
No constants are given. Whether binding was seen depends on the method and setting. For some of these results: Binding seen in cells or lysates may run through a third protein. Some entries that bind do so weakly or less than the wild type.

Amino acid sequences for entries named in this document (tags omitted). A change or cut given only in a name is not applied to a line headed by its entry.
UniProt P49841: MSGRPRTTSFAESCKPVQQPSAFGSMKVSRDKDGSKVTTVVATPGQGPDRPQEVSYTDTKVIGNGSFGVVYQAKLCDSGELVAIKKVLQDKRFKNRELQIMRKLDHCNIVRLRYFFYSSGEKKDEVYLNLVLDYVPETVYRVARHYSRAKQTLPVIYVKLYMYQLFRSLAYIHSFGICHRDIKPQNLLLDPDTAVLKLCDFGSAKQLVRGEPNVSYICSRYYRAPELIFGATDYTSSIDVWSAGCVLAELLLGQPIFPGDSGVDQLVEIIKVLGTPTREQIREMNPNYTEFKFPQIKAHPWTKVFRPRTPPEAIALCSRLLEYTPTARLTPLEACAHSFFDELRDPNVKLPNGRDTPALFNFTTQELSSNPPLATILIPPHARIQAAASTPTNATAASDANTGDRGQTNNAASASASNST

Legend:
[1] = molecular target: FLAG-tagged OLA1 C-terminal deletion mutant without the TGS domain (∆TGS) (human) (UniProt Q9NTK5); test: co-IP; HEK293 cells transiently transfected with FLAG-OLA1 constructs (48 hours); IP with anti-FLAG M2 magnetic beads; immunoblot with anti-GSK3β and anti-OLA1
[2] = molecular target: FLAG-tagged wild-type OLA1 (human) (UniProt Q9NTK5); test: as above
[3] = molecular target: FLAG-tagged OLA1 N230A (human) (UniProt Q9NTK5); test: as above
[4] = molecular target: HA-tagged GSK3β S9A (constitutively active mutant) (UniProt P49841); test: co-IP; HEK293 cells transiently transfected with HA-GSK3β constructs (48 hours); IP with anti-HA antibody overnight at 4°C, protein A/G plus agarose; immunoblot with anti-OLA1 and anti-HA
[5] = molecular target: HA-tagged wild-type GSK3β (UniProt P49841); test: as above
[6] = molecular target: GSK3β, endogenous (human (endogenous in HEK293)) (UniProt P49841); test: co-IP; protein extracts of non-treated HEK293 cells; IP with anti-GSK3β antibody or control IgG overnight at 4°C, protein A/G plus agarose; immunoblot with anti-OLA1 and anti-GSK3β
[7] = molecular target: His-tagged human OLA1 recombinant protein (human) (UniProt Q9NTK5); test: pull-down; His-OLA1 (500 μg) incubated with various amounts of GST-tagged protein in binding buffer [6.5 mM NaPO4 (pH 7.4), 140 nM NaCl, 0.02% Tween 20] for 1 hour at room temperature; His-OLA1 precipitated with Dynabeads His-tag isolation system; immunoblot with anti-GST; both purified

“GSK3β, endogenous (from UniProt P49841 1-420)” was tested, and the binding [1] was “no binding”, the binding [2] was “binds” and the binding [3] was “binds”.

With “Obg-like ATPase 1 (OLA1), endogenous (from UniProt Q9NTK5 1-396)” the binding [4] was “binds”, the binding [5] was “binds” and the binding [6] was “binds”.

With “recombinant GSK3β-GST fusion protein (from UniProt P49841 1-420)” the binding [7] was “binds”.
